# Among all 310,000 compounds or so, about 18,000 (5.8%) were called active. This list was built around the results that the source calls inconclusive (neither active nor inactive); the mix of calls is not that of the screen. Calls come from the whole dose curve; as a rule, active = well fitted inhibition curve with a large enough effect; inconclusive = small, poorly fitted or top-dose-only effect, or another doubt; inactive = no such curve, though single readings can be large or run the other way. Potencies of inconclusive entries are left out as doubtful fits.
# Assay: Primary qHTS for delayed death inhibitors of the malarial parasite plastid, 48 hour incubation
# Conditions: P. falciparum luciferase growth in erythrocytes; series mostly up to 28.7 µM; activity change, negative = inhibition: at the top concentration
# Method in brief: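 In quantitative HTS format, infected erythrocytes bearing luciferase-reporter parasites were treated for a single generation at 37 C. Luminescence after adding detection reagent served as the growth measure.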
# % is set by controls: 0 for no effect and ±100 for the full control effect; potency is the fitted concentration of half-maximal effect; tags give direction and shape of the fitted curve.
SMILES,Potency,"activity change, negative = inhibition"
CC(=O)C1=C(C)NC(SCC(=O)c2cc(Cl)ccc2Cl)=C(C#N)C1c1ccco1 (configuration not stated),active: 9.28 µM,–
Cc1cc(=O)c2cc(Br)ccc2n1CC(=O)NCc1ccccc1,–,inactive: -12.1%
Cc1c(NC(=O)C(C)OC(=O)c2ccc(NC(=O)CC#N)cc2)c(=O)n(-c2ccccc2)n1C (configuration not stated),"inconclusive [inhibitor, partial curve, poor fit]",–
COc1ccccc1NC(=O)Nc1nn(C)c2cccc(OC)c12,"inconclusive [inhibitor, partial curve]",–
COCc1nnc(NC(=O)C23CC4CC(CC(C4)C2)C3)s1,"inconclusive [inhibitor, partial curve]",–
Cc1cc2c(cc1S(=O)(=O)N1CCN(c3ccc(Cl)cc3)CC1)OCCN2C,–,inactive: -18.8%
CS(=O)(=O)N1CC(C(=O)NC2CCCC2)Oc2ccc(Cl)cc21 (configuration not stated),"inconclusive [inhibitor, partial curve, poor fit]",–
COc1cc(CNCCSc2nnnn2C)cc(Br)c1OCc1ccccc1,"inconclusive [inhibitor, single point]",–
CC(=O)Nc1ccc(C(=O)OCc2ccc(Cl)c(Cl)c2)cc1,"inconclusive [inhibitor, single point]",–
CCOC(=O)C(NC(=O)c1cccc(Cl)c1)(OCc1ccccc1)C(F)(F)F (configuration not stated),"inconclusive [inhibitor, partial curve, poor fit]",–
Cc1nonc1NC(=O)CSc1nnnn1-c1ccccc1,–,inactive: 15.4%
COc1ccc(C)cc1S(=O)(=O)N1CCOCC1,–,inactive: 16.2%
O=C(Nc1ccc(S(=O)(=O)NC2=NCCCCC2)cc1)c1ccc([N+](=O)[O-])s1,active: 10.4 µM,–
CCOc1cc(/C=C2\SC(=N)N(c3nccs3)C2=O)ccc1OCCN1CCOCC1,"inconclusive [inhibitor, partial curve, poor fit]",–
C/C(=N\Nc1ccc(F)cc1F)c1ccc(N2CCOCC2)cc1,–,inactive: 41.1%
Cc1ccc(NC2=CC(=O)CC(c3ccc(Cl)cc3)C2)cc1 (configuration not stated),active: 13.1 µM,–
N[C@@H](Cc1ccc(O)cc1)c1nnc([C@H](CC(=O)O)NC(=O)C2CCNCC2)o1,–,inactive: 35.9%
Cc1ccc(/C=N/n2c(C3CCCCC3)n[nH]c2=S)cc1,"inconclusive [inhibitor, single point]",–
COc1ccccc1Sc1nc(-c2ccccc2)ncc1OC,"inconclusive [inhibitor, full curve, poor fit]",–
Cc1ccc(SCC(=O)OCn2nnc3ccccc3c2=O)cc1C,–,inactive: 20.1%
Cc1cccc(NC(=S)N=Nc2c(O)[nH]c3ccccc23)c1,"inconclusive [inhibitor, full curve, poor fit]",–
Cc1cccc(C)c1NC(=S)N=Nc1c(O)n(C)c2ccc(S(=O)(=O)N3CCOCC3)cc12,"inconclusive [inhibitor, full curve, poor fit]",–
COc1ccc(/C=C/C(=O)NCC(=O)N/N=C(/C)c2ccco2)cc1,–,inactive: 9.54%
Clc1ccc(N/N=C/c2ccncc2)cc1Cl,active: 2.33 µM,–

SMILES,Potency,"activity change, negative = inhibition"
CC(=O)Nc1ccc(NC(=O)c2ccc([N+](=O)[O-])cc2Cl)cc1,–,inactive: 28.7%
Cn1cnnc1SCC(=O)c1c(N)n(Cc2ccccc2)c(=O)n(C)c1=O,"inconclusive [inhibitor, partial curve, poor fit]",–
Cc1ccc(CNC(=O)N2CCN(S(=O)(=O)c3ccccc3)CC2)cc1,–,inactive: 26.8%
Cc1ccc(C)c(CNS(=O)(=O)c2c(C(=O)N3CCCC3)c(C)n(C)c2C)c1,"inconclusive [inhibitor, partial curve, poor fit]",–
CC(C)(C)C(=O)N1CCN(c2nc3ccc(Br)cc3s2)CC1,–,inactive: 31.5%
COc1ccc(C)cc1NC(=O)NC1CCCCCCC1,"inconclusive [inhibitor, partial curve, poor fit]",–
Cc1cc(=O)oc2cc(OC(C)C(=O)NC3CCN(Cc4ccccc4)CC3)ccc12 (configuration not stated),"inconclusive [inhibitor, partial curve, poor fit]",–
CCCCCCn1c(N)c(C(=O)NCCN2CCOCC2)c2nc3ccccc3nc21,active: 9.28 µM,–
CCOC(=O)C1=C(c2ccccc2)NC(SCC(=O)Nc2ccc(C)cc2)=C(C#N)C1c1ccco1 (configuration not stated),"inconclusive [inhibitor, single point]",–
CCOC(=O)C1CCN(c2c(Nc3ccc4c(c3)OCCO4)c(=O)c2=O)CC1,–,inactive: 50.3%
COc1cccc(-c2nn(-c3ccc(C)cc3)cc2C(=O)NCC(c2cccs2)N2CCOCC2)c1 (configuration not stated),active: 3.29 µM,–
Cn1c(=O)c(C(=O)NCC2CCCO2)c(O)c2ccccc21 (configuration not stated),"inconclusive [inhibitor, single point]",–
O=Nc1c(-c2c(O)[nH]c3cc(Br)ccc23)[nH]c2ccccc12,active: 4.15 µM,–
COc1cccc(NC(=O)CCCn2nc(C)c3c(C)n(-c4ccccc4)nc3c2=O)c1,–,inactive: -10.5%
COc1ccc(NC(=O)c2sc3nc(C)cc(C)c3c2N)cc1,–,inactive: 161%
Nn1c(COc2cccc(Br)c2)nnc1SCC(=O)N1CCc2ccccc2C1,"inconclusive [inhibitor, partial curve, poor fit]",–
C[C@H](NC(=O)c1nc[nH]c1C(=O)NC1CCN(C(=O)OC(C)(C)C)CC1)C(=O)OCc1ccccc1,"inconclusive [inhibitor, single point]",–
O=C(COc1ccccc1F)OCC(=O)N1CCc2ccccc21,"inconclusive [inhibitor, single point]",–
O=C(NCCCN1CCOCC1)C(=O)NCc1ccco1,–,inactive: 22.1%
O=C1C(Cl)=C(N2CCCCC2)C(=O)N1c1ccccc1,"inconclusive [inhibitor, full curve, poor fit]",–
COc1cc2c(cc1OC)CN(C(=O)CCN1C(=O)C3CCCCC3C1=O)CC2 (configuration not stated),–,inactive: -4.56%
Cc1ccc(C)c(CN2CCSCC2)c1,"inconclusive [inhibitor, single point]",–
COc1ccc(CN2CCNC(=O)C2CC(=O)NC2CCCC2)cc1OC (configuration not stated),–,inactive: -15%
